Here are results for six molecules from publication PMC12136788.

Sequences and labels used below:
B1: chr13:108516651:108516652:-_ENSMUSG00000032846_ENSMUST00000105097|mus_hu|FALSE|FALSE (ssRNA)
RNA: GGGAGUUCUACAGUCCGACGAUCAUCAUGCGCCAUUAAGAAGGUCUCUCGGGCUUUGCUGAGGAACUCUAUAAACUCACUAUAGUGCCGAGGACUGAUGUGUGUGAGCCGUGAGUGCGUUGUGUUGAUGUAGGCCCCGAUCGUCAACAGAGGAUUGAGCAUCA
B2: chr2:91460361:91460362:+_ENSMUSG00000040549_ENSMUST00000099716|mus_hu|motif|central (ssRNA)
RNA: GGGAGUUCUACAGUCCGACGAUCAUACACUAGGCCUGCUGAGGCCAUUUUAAACUAUGAGGACUUCUAGUUUAGUAAACGGAAGCUGCAGGGUGCCGGGGGAGUGGGGCAGCUUCAUUUGCGACUGCUCUUUAUUCUCUCCAGCAACAGAGGAUUGAGCAUCA
B3: chr4:17845017:17845018:+_ENSG00000109805_ENST00000514176|hu_mus|hu_hu_hu_mus_False|68_88 (ssRNA)
RNA: GGGAGUUCUACAGUCCGACGAUCGCUCUCUUAACUUGUAUCUUCAUGAGAAAUUGGUGCAAGGUUAGUUUACUUUUUCUGUAGCGCAGCUGUUUUGGCUCGUCUGGGUAAUCUCAUCUUCAUUUCUGAUGGUGGUUCAUGAUCCAACAGAGGAUUGAGCAUCA
B4: chr2:61705333:61705334:-_ENSG00000082898_ENST00000401558|hu_hu|FALSE|FALSE (ssRNA)
RNA: GGGAGUUCUACAGUCCGACGAUCGUUGUCGACAAGCGACAGCACACACACACAAAAACAAAAAGAACUGUGUAAAAAUAACUAACUGUGUUCCCAUAUUUUUGAAGUCGCUUUACAAUGGGAUGAUAUGCACAUGAUCUUGCUCAACAGAGGAUUGAGCAUCA
B5: chr1:39494564:39494565:+_ENSG00000168653_ENST00000372967|hu_hu|hu_hu_hu_mus_True|8_48 (ssRNA)
RNA: GGGAGUUCUACAGUCCGACGAUCAUGCAUUCGCCUCAUCGUUUUGUACCGAAGCAAGCACUCUUCGAAGUCAUCGAACUCUAUCUUGCACUCUUUCUUCGCCCGGGUCCCACCGAUCCCGUGUGCACAUUCUAUCCACUCUUUCAACAGAGGAUUGAGCAUCA
B6: chr8:110352747:110352748:+_ENSG00000120533_ENST00000521662|hu_mus|hu_hu_hu_mus_True|18_18 (ssRNA)
RNA: GGGAGUUCUACAGUCCGACGAUCCAGGGCUCUGCCUUUUGGAGUGAUUUCAGCCACCAAGUCAUCAACAGUAACGUGUUCUAGUCCUUUUUCUUUAAUUACCUCUUUACAGUGUGCCUUCAACUGAUCCUUCCAGCCGCACUCCAACAGAGGAUUGAGCAUCA

This is one part of the list.

In this test the target is T1, UNK ZnF1-3 (human, UniProt Q9C0B0 31-174).
T1 sequence: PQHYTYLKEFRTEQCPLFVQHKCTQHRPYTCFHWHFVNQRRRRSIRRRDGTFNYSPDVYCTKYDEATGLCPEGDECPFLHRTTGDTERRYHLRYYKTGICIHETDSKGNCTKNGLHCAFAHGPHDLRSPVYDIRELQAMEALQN
In words: nsRBNS (natural sequence RNA bind-n-seq); RBNS binding buffer (assumed for nsRBNS): 25 mM Tris pH 7.5, 150 mM KCl, 3 mM MgCl2, 0.01% Triton X-100, 500 ug/ml BSA, 20 U/ml SUPERase-In, 4 C; UNK is unkempt and MSI1 is Musashi-1; names of the RNAs are library labels; protein concentration not given here; high values mean tight binding.
B1 gave a binding signal of 1.13 enrichment R.
With B2, the binding signal was determined as 0.451 enrichment R.
For B3 the value was 0.397 enrichment R; for B4, 0.638 enrichment R.
For B5 the value was 0.572 enrichment R; for B6, 0.856 enrichment R.
